Results reported in PubChem BioAssay AID463173 (ICCB-Longwood Screening Facility, Harvard Medical School, 2010).
Hit rate of the full screen: of about 52,000 compounds, about 4,300 (8.3%) were called active. Rule as the data show it: active = survival mostly below about 52% (no sharp cut-off); inactive = mostly above about 56%. The list shows a part of the results.

tested on: DeltatarO mutant; test: S. aureus survival, RN4220 and DeltatarO strains – OD600, teichoic acid synthesis inhibitors, primary screen (AID 463173); conditions: S. aureus RN4220 wild type/DeltatarO growth, OD600, 18 h, hits give low values, screened at 18.75 µg/mL (by protocol)

SMILES	survival
COc1cccc(CSc2nc(-c3ccccc3F)nc3c2Cc2c(CO)cnc(C)c2O3)c1	inactive: 63%
COc1ccc(-c2nc(CSc3nnc(C)n4c3cc3oc(C)cc34)c(C)o2)cc1OC	inactive: 71%
O=C(c1cccs1)N(Cc1cccnc1)c1nc2c(F)cc(F)cc2s1	inactive: 92%
CCn1cc2nc(SCc3ccc(F)cc3)n(CCc3ccccc3)c(=O)c2n1	inactive: 84%
CCN(CCCNC(=O)c1ccc(Sc2ccc(Cl)cc2)c(NC(C)=O)c1)c1ccccc1	inactive: 70%
Cc1ccc(S(=O)(=O)/N=C2\C=C(Sc3ncn[nH]3)C(=O)c3ccccc32)cc1	inactive: 77%
CCN(CC)S(=O)(=O)c1nnc(NC(=O)c2ccc(Br)cc2)s1	active: 44%
CCCNC(=O)Cn1nc(C(F)(F)F)c2c1CCC2	inactive: 97%
Cc1c(C(=O)N(C)C)sc2c1c(=O)n(-c1ccc(F)cc1)c(=O)n2Cc1ccccc1C#N	inactive: 76%
CCc1ccccc1N(C)S(=O)(=O)c1ccc2c(c1)C(C)(C)C(=O)N2C	inactive: 82%
Fc1ccc2c(c1)-c1c(cnc3cc(-c4ccc(Cl)cc4)nn13)CO2	inactive: 69%
CC(=O)N1CCc2cc(CNC(=O)Nc3ccc(Br)c(C)c3)ccc21	inactive: 87%
COc1cccc(NC(=O)c2csnn2)c1	inactive: 89%
CC(=O)Nc1ccc(NC(=O)C2CCN(c3cnccn3)CC2)cc1	inactive: 74%
C=Cc1ccc(Cn2ccn(-c3ccc(F)c(F)c3)c(=O)c2=O)cc1	inactive: 108%
COc1ccc(CCN2C(=O)c3[nH]nc(-c4ccccc4O)c3C2c2ccccc2)cc1 (configuration not stated)	active: 22%
C=CCSc1nc2sc3c(c2c(=O)[nH]1)CC(C)(C)OC3	inactive: 116%
COCCNC(=S)N1CCC(C(=O)c2ccc(F)cc2)CC1	inactive: 108%
Cc1ccc(CNC(=O)CCc2cn(Cc3ccc(C)cc3)c3ccccc23)cc1	inactive: 68%

SMILES	survival
O=C(O)CN1CCCCC1	inactive: 89%
CCOc1ccc(-c2cc3nc(C4CCN(C(=O)OC(C)(C)C)CC4)c(C(=O)Nc4c(C)cccc4C)cn3n2)cc1	inactive: 68%
CC1=NN(c2ccccc2)C(=O)C1(O)C1C(=O)c2ccccc2C1=O (configuration not stated)	inactive: 102%
CCC(=O)Nc1ccccc1-c1nc2ccccc2n(C(CC)C(=O)Nc2cccc(Cl)c2)c1=O (configuration not stated)	active: 24%
Cc1cc(C)c(Cn2c(=O)n(CCCCC(=O)NCc3ccccc3Cl)c(=O)c3ccccc32)c(C)c1	inactive: 93%
CCOC(=O)c1c(C)sc(-c2c(-c3cccc(Cl)c3)[nH]c3c2c(=O)n(C)c(=O)n3C)c1O	inactive: 113%
COc1ccc(NC(=O)C2=C(C)Nc3ncnn3C2c2ccc[nH]2)cc1 (configuration not stated)	inactive: 94%
COc1ccc(NC(=O)C(=O)NCCc2csc(-c3ccc(Cl)cc3)n2)cc1OC	inactive: 86%
Cc1ccc2[nH]c(=O)c(CC3CC(c4ccccc4)=NN3C(=O)CCC(=O)O)cc2c1 (configuration not stated)	inactive: 103%
COc1ccc(-c2nc3scc(CCNS(=O)(=O)c4ccc(C)cc4)n3n2)cc1	inactive: 70%
CCN1CCN(c2ncc3c(n2)CCN(Cc2cc(F)cc(F)c2)C3)CC1	inactive: 90%
COc1ccccc1NC(=O)C(=O)NCC(c1ccc2c(c1)OCO2)N1CCN(C)CC1 (configuration not stated)	inactive: 74%
COc1ccc(S(=O)(=O)N(CC(=O)Nc2ccccc2Br)Cc2ccccc2)cc1	inactive: 59%
Cn1c(=NC(=O)c2ccc(S(=O)(=O)N3CCCc4ccccc43)cc2)sc2cc(F)ccc21	inactive: 60%
CC(C)OCCCn1c(=O)c2ccccc2n2c(-c3ccc(F)cc3)nnc12	inactive: 98%
CC(C)N(C(=O)Cn1nnc2c(cnn2-c2ccccc2)c1=O)C(C)C	inactive: 115%
Cc1cccc(C(=O)Nc2c(-c3ccccc3)nc3cc(C)ccn23)c1	active: 27%
Cc1ccc(Cl)cc1NC(=O)c1cnc(N2CCCCC2)c2ccccc12	inactive: 91%
O=C(Cn1c(SCC(=O)Nc2ccc(F)cc2)nc2ccccc21)NCc1ccc(F)cc1	inactive: 91%

SMILES	survival
N#Cc1ccc(C(=O)Nc2cc3nn(-c4ccccc4)nc3cc2Cl)c(F)c1	inactive: 137%
CC(C)Oc1ccc(C2CC(=O)N(Nc3ccccc3)C2=O)cc1 (configuration not stated)	inactive: 98%
CCCC(=O)NCC1(N(C)C)CCCCC1	inactive: 88%
CCOC(=O)C1CCN(S(=O)(=O)c2cc(Br)cc3c2N(C(=O)CC)CC3)CC1	inactive: 66%
O=C(c1cc2nc(-c3ccccc3)cc(-c3ccccc3)n2n1)N1CCCC1	inactive: 85%
CC(C)CC(=O)Nc1cccc(-c2nc3ccccc3[nH]2)c1	inactive: 68%
CCC1=Nc2cc(C(=O)NCCCOC)ccc2Sc2ccc(Br)cc21	inactive: 50%
COc1ccccc1CNc1nc(-c2ccco2)nn1S(=O)(=O)c1ccc2ccccc2c1	inactive: 105%
COCC(=O)N(CCc1ccccc1)Cc1cc2cccc(C)c2n2nnnc12	inactive: 100%
O=C(c1cn(CC(=O)N2CCOCC2)c2ccccc12)C1CC1	inactive: 90%
COC(=O)C1(c2ccccc2)NC(c2cccs2)C2C(=O)N(C)C(=O)C21 (configuration not stated)	inactive: 82%
Cc1ccccc1C(=O)Nc1sc2c(c1C(=O)NCc1ccco1)CCC(C(C)(C)C)C2 (configuration not stated)	inactive: 109%
CNC(=O)C1CCC(Cn2c(=O)c3sccc3n(CC(=O)NCc3ccccc3)c2=O)CC1 (configuration not stated)	active: 32%
Cc1ccc(S(=O)(=O)NC(=O)NC(C)(C)C)cc1	inactive: 74%
Cc1ccc(SCCNC(=O)CN(c2ccccc2)S(=O)(=O)N(C)C)cc1	inactive: 64%
COC(=O)c1ccc(NC(=O)CSc2nc(=O)[nH]c3c2CCCC3)cc1	inactive: 75%
CCOC(=O)COc1ccc([N+](=O)[O-])cc1-c1ccnc2cc(-c3ccc(Cl)cc3)nn12	inactive: 89%
O=C(O)C1C(c2ccccc2)C(C(=O)N2CCCCC2)C1c1ccccc1 (configuration not stated)	inactive: 101%
CCc1ccc(CN(Cc2ccco2)c2cnc(S(C)(=O)=O)nc2C(=O)Nc2cccc(C)c2)cc1	inactive: 46%
